Experimental data published in the RNAGym collection of RNA variant scans (doi:10.7554/elife.90254).
The source gives no read counts; variants with many changes may rest on few reads.

B1: LINE1-mini (parent)
chain: GGCAGAGCUCAACACAGCGUGGCAAAGUGGCUGUGGCUAGACUGCC

Variants of: B1
Test: self-cleavage, relative activity (ratio to wild type); higher = more cleavage; in vitro, sequencing; the parent is a self-cleaving ribozyme
Work on C3A C10A G21U G29A U32G yielded a self-cleavage of 0.05.
A4G G21C G30A U43G gave a self-cleavage of 0.
Variant C10A A11U C15U C31G A39G has a self-cleavage of 0.02.
For A4G C15A U34A C42G, the self-cleavage was 0.07.
G2U C3U G21A G29U gave a self-cleavage of 0.57.
A26G G29U U32A G40A gave a self-cleavage of 0.11.
Work on A11C C37A A39C yielded a self-cleavage of 0.
Variant G7A G27U G35U G44U has a self-cleavage of 0.72.
In the case of G21A U38C A41U, the self-cleavage is reported as 0.79.
Work on G5U G19U A25U G27U C31A U32G C42U G44A yielded a self-cleavage of 0.01.
Work on A11G G27A C31U yielded a self-cleavage of 0.02.
A6G A25U G27U U38G A41G G44U showed a self-cleavage of 0.
For A4C C13A G19U U28A G44A, the self-cleavage was 0.02.
Variant C8G A14G C15A C18A C31U G40C C46A has a self-cleavage of 0.
For A16U A24U C31U G36C, the self-cleavage was 0.
Work on G5A G29U G30U U38C yielded a self-cleavage of 0.04.
With G2U C3A G33U the self-cleavage was 0.05.
Work on G2C G7A C8A G19C C23G A24U G27A G36C yielded a self-cleavage of 0.16.
In the case of G2U A6C C18U A24U C37G, the self-cleavage is reported as 0.01.
In the case of C23A G33U G36U C42U, the self-cleavage is reported as 0.05.
C8G C23A A26U gave a self-cleavage of 0.11.
G5U A6U G22U gave a self-cleavage of 0.16.
A14U G21C C42G showed a self-cleavage of 0.08.
G1A A4C G5C C8G gave a self-cleavage of 0.11.
Work on C10U G17C G33A G35U yielded a self-cleavage of 0.02.
With A4U C10U U28C the self-cleavage was 0.04.
Work on G5U C13G C45A yielded a self-cleavage of 0.01.
For G2C G21C U28G, the self-cleavage was 0.02.
For A6U A14C A16C G36C C37U A39U, the self-cleavage was 0.03.
A6U U9G C18G G22A U32C gave a self-cleavage of 0.09.
G17C G22U C37G U38C C46A showed a self-cleavage of 0.01.
Work on C8A A11C C31G U32G yielded a self-cleavage of 0.01.
Variant G2U G33A C37U has a self-cleavage of 0.01.
In the case of A4G A11U U38G A41C, the self-cleavage is reported as 0.01.
With A4C G27C U43C the self-cleavage was 0.
A4C C10A C45U showed a self-cleavage of 0.03.
With C37G A39U G44U the self-cleavage was 0.08.
Variant G21C G35U C46G has a self-cleavage of 0.07.
For G2A C3A G33C, the self-cleavage was 0.1.
Work on A4G A11G C15A U32C yielded a self-cleavage of 0.01.
With G22A G27A G44C C45G the self-cleavage was 0.04.
With C3A G19U G35A G36A C37U the self-cleavage was 0.03.
In the case of G2C A6U G17U C37A, the self-cleavage is reported as 0.2.
Variant U9A A41C G44U has a self-cleavage of 0.08.
In the case of G21A A24G G30U G33U C37A, the self-cleavage is reported as 0.12.
A4U A12G A16G showed a self-cleavage of 0.02.
For U28C G40U U43C, the self-cleavage was 0.22.
With C15U A16C G21A U32C U34G the self-cleavage was 0.04.
G29U G30U G35C C45A gave a self-cleavage of 0.
Variant G17C G27U G36U has a self-cleavage of 0.15.
C8A C10G G21A showed a self-cleavage of 0.01.
A26C G29A U43G C45G gave a self-cleavage of 0.01.
G17C G29U G30A showed a self-cleavage of 0.13.
For C23G G29U C31G, the self-cleavage was 0.07.
Work on C23U G29A U38A yielded a self-cleavage of 0.39.
Variant A6G G30A G35U has a self-cleavage of 0.11.
Work on C3A A16C U32A U34A yielded a self-cleavage of 0.08.
Variant C13G G27U G30C U43C G44C has a self-cleavage of 0.01.
G5U G17U U20A showed a self-cleavage of 0.01.
A11U C13A G17U U43A showed a self-cleavage of 0.01.
A16G G21C G33U gave a self-cleavage of 0.08.
Variant A11C G29C G40U has a self-cleavage of 0.01.
Work on C3G C31U U34G yielded a self-cleavage of 0.09.
For C3G A6U G29C G35U C37G A39U, the self-cleavage was 0.02.
Work on A4G A6C A24U yielded a self-cleavage of 0.12.
For A11G G22U G40U C42A U43G C46G, the self-cleavage was 0.05.
G17A U20C G21A G33U showed a self-cleavage of 0.04.
For A4C C13A C15G, the self-cleavage was 0.02.
G1C A12U C15U G40A C46A showed a self-cleavage of 0.01.
G2U C13U G22U G27C gave a self-cleavage of 0.06.
C8A G29U C42G showed a self-cleavage of 1.24.
Work on C18A G22C G27A yielded a self-cleavage of 0.59.
A6C A12U G22A G44U showed a self-cleavage of 0.03.
A14U A16U U38C showed a self-cleavage of 0.04.
Work on G22C C23G A24U C31A yielded a self-cleavage of 0.96.
In the case of U20A G27A U28C, the self-cleavage is reported as 0.12.
Work on G2A G29U G35C G44U yielded a self-cleavage of 0.14.
Work on G5A C23U C42G yielded a self-cleavage of 0.05.
C18A C37U C46U showed a self-cleavage of 0.02.
C15U A16G G19U C23A showed a self-cleavage of 1.56.
In the case of A6G C10U U28C G36A, the self-cleavage is reported as 0.03.
G27U C31G C37A showed a self-cleavage of 0.07.
For G2A C15A C18U U28G G36A, the self-cleavage was 0.01.
